According to PubChem BioAssay AID504466 (National Center for Advancing Translational Sciences (NCATS), 2011):
In all, about 330,000 compounds went through this assay and about 4,200 (1.3%) were called active. This list was built around the results that the source calls inconclusive (neither active nor inactive); the mix of calls is not that of the screen. The call rests on the fitted dose curve; in most records, active means well fitted activation curve with a large enough effect; inconclusive means small, poorly fitted or top-dose-only effect; inactive means no such curve, though single readings can be large or run the other way. Where the call is inconclusive, the potency comes from a doubtful curve fit.

Assay: qHTS screen for small molecules that induce genotoxicity in human embryonic kidney (HEK293T) cells expressing luciferase-tagged ELG1; further: nearly all actives have a fitted effect of over 60% in size
Conditions: HEK293T ELG1-luciferase reporter, luminescence, 16 h; series mostly up to 46 µM
Method in brief: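 Screening used a luciferase reporter fused to human ELG1 in HEK293T cells. Luminescence was read on a CCD plate imager after 16 hr exposure and 30 min ONE-Glo incubation.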
Potency means the concentration at half of the fitted maximal effect; tags describe the fitted curve by direction and shape.

SMILES | Potency
Cc1occc1C(=O)Nc1ccc2ccccc2c1 | inconclusive: 1.46 µM [activator, full curve]
CCOc1ccc(C(=O)NCc2ccccn2)cc1 | inconclusive: 25.9 µM [activator, partial curve, poor fit]
N/C(=N\OC(=O)c1ccccc1Br)c1ccc([N+](=O)[O-])cc1 | inconclusive: 5.17 µM [activator, partial curve]
Cc1c(Cl)cccc1NC(=O)c1cc(-c2ccccc2O)n[nH]1 | inconclusive: 9.2 µM [activator, partial curve]
COc1ccc(NC(=O)c2ccc(Br)o2)cc1 | inconclusive: 16.4 µM [activator, partial curve]
Cc1nn(-c2cccc(Cl)c2)c(Cl)c1/C=N/NC(=O)c1cccs1 | inconclusive: 13 µM [activator, partial curve, poor fit]
Oc1c(Cl)cc(Cl)cc1/C=N/c1nc(-c2ccc(Cl)cc2)cs1 | inactive
CC(C)n1ncc2c(C(=O)NCCc3ccc(F)cc3)cc(C3CC3)nc21 | inactive
CCN=C1NN=C(c2ccc(C)cc2)CS1 | inconclusive: 0.651 µM [activator, partial curve]
COc1ccc(C(=O)NC2CCc3ccccc32)cc1OC1CCN(C(C)C)CC1 (stereo unspecified) | inconclusive: 29.1 µM [activator, partial curve, poor fit]
COc1cc(-c2cc(=O)c3c(O)c(OC)c(OC)cc3o2)cc(OC)c1O | inconclusive: 11.6 µM [activator, partial curve, poor fit]
O=C(O)c1ccccc1OCc1nc2ccccc2s1 | inconclusive: 35.5 µM [activator, single point]
CC(=O)c1cccc(NC(=O)c2cc(C(C)C)on2)c1 | active: 9.2 µM
CCCc1ccc(C(=O)NNc2cccc(C)c2)cc1 | inconclusive: 13 µM [activator, partial curve, poor fit]
O=C(Nc1ccccc1)C(Cl)C(=O)c1ccccc1 (stereo unspecified) | inconclusive: 20.6 µM [activator, partial curve, poor fit]
Cc1ccc(C(=O)Nc2nccs2)cc1 | inconclusive: 6.51 µM [activator, partial curve]
Cc1ccc(NS(=O)(=O)c2cccc(C(=O)N(C)Cc3cccs3)c2)cc1 | inactive
CCOc1ccc(N(CC(=O)Nc2cc(Cl)ccc2C)S(C)(=O)=O)cc1 | inactive
CCOC(=O)Cn1cc(/C=N/N2C(=O)C3C4C=CC(C4)C3C2=O)c2ccccc21 (stereo unspecified) | inactive
Cc1ccc(/C=N/NC(=O)c2nn(C)cc2Cl)cc1 | inconclusive: 18.4 µM [activator, partial curve]
CCN(CC)C(=O)CSC(Nc1ccc(F)cc1)=C(C#N)C#N | inactive
Cc1coc2c1c(C)cc1oc(=O)c(CC(=O)N[C@H](C(=O)O)C(C)C)c(C)c12 | inactive
c1ccc(Cc2ccc(OCCn3cncn3)cc2)cc1 | inconclusive: 29.1 µM [activator, single point]

SMILES | Potency
O=C(O)c1cnn(-c2nc(-c3ccc(Cl)cc3)cs2)c1C(F)(F)F | inconclusive: 18.3 µM [activator, partial curve]
O=C(CSc1nnc(NC(=O)c2c(F)cccc2F)s1)NC1CCCCC1 | inactive
CN(C)c1ccc(CNn2cnnc2SCc2ccccc2F)cc1 | inconclusive: 18.4 µM [activator, single point]
CN1C(=O)c2cccc3c(S(=O)(=O)N(C)C)ccc1c23 | inconclusive: 20.6 µM [activator, partial curve, poor fit]
N#Cc1ccc(/C=N/NC(=O)c2ccccc2F)cc1 | inconclusive: 16.4 µM [activator, partial curve, poor fit]
CCOc1cc(-c2sc(Nc3ccccc3)n[n+]2-c2ccc(F)cc2)ccc1OC | inactive
COc1ccc2cc3cc(C(=O)NC4CC4)sc3nc2c1 | inconclusive: 1.16 µM [activator, partial curve]
Cn1c(=O)c2ncn(CC(=O)Nc3cccc(-c4nc5ccccc5s4)c3)c2n(C)c1=O | inactive
C/C(=C\c1ccccc1)C(=O)Nc1cc(C)on1 | inconclusive: 23.1 µM [activator, single point]
O=C(CCc1nnc(Cc2cccc(C(F)(F)F)c2)o1)NCCc1ccccc1F | inconclusive: 23.1 µM [activator, partial curve, poor fit]
COc1ccc(S(=O)(=O)Nc2cc(SCC(=O)O)c(O)c3ccccc23)cc1 | inactive
CCCC(=O)c1ccc(N2CCCCC2)c(F)c1 | inconclusive: 23.1 µM [activator, single point]
O=C1CCS/C(=N\N=C\c2ccc(Cl)cc2Cl)N1 | inconclusive: 18.3 µM [activator, partial curve]
Fc1ccc(-c2nc3c(Cl)cc(C(F)(F)F)cn3c2Cl)cc1 | active: 16.4 µM
CCn1c(=O)n(CC)c2cc(S(=O)(=O)Nc3ccccc3C)c(C)cc21 | inconclusive: 18.4 µM [activator, partial curve, poor fit]
Oc1nc(Nc2ccccc2)sc1/C=C1\C=Nc2ccccc21 | inconclusive: 20.6 µM [activator, partial curve, poor fit]
Cc1ccc(-c2csc(NC(=O)COC(=O)c3cccc(S(=O)(=O)N4CCOCC4)c3)n2)cc1 | inconclusive: 14.6 µM [activator, partial curve]
Cc1ccc(OCC(=O)Nc2cccc(C)n2)c(C)c1 | active: 4.11 µM
COc1cc(/C=C(\C#N)c2nc3c(s2)CCCC3)ccc1O | active: 11.2 µM
O=C1/C(=C/c2cccnc2)Oc2cc(OS(=O)(=O)c3ccccc3)ccc21 | inconclusive: 29.1 µM [activator, partial curve, poor fit]
O=C(COC(=O)/C=C/c1ccc([N+](=O)[O-])cc1)NNC(=O)c1ccccc1 | inactive
O=C(CSc1nnc(C2CC2)n1C1CC1)c1cc(F)ccc1F | inactive
COC(=O)c1cc(OC)c(OC)cc1NC(=O)Nc1ccc(OC)cc1 | inactive
